Screen size: about 310,000 compounds; about 2,200 (0.71%) showed an effect of 50% or more. The effect is printed as a negative number. The list shows a part of the results.
target: human ether-à-go-go-related gene (hERG) potassium channel (human, UniProt Q12809); assay: primary screen, population patch clamp on CHO cells stably expressing hERG
Sequence (Q12809 whole entry, looked up): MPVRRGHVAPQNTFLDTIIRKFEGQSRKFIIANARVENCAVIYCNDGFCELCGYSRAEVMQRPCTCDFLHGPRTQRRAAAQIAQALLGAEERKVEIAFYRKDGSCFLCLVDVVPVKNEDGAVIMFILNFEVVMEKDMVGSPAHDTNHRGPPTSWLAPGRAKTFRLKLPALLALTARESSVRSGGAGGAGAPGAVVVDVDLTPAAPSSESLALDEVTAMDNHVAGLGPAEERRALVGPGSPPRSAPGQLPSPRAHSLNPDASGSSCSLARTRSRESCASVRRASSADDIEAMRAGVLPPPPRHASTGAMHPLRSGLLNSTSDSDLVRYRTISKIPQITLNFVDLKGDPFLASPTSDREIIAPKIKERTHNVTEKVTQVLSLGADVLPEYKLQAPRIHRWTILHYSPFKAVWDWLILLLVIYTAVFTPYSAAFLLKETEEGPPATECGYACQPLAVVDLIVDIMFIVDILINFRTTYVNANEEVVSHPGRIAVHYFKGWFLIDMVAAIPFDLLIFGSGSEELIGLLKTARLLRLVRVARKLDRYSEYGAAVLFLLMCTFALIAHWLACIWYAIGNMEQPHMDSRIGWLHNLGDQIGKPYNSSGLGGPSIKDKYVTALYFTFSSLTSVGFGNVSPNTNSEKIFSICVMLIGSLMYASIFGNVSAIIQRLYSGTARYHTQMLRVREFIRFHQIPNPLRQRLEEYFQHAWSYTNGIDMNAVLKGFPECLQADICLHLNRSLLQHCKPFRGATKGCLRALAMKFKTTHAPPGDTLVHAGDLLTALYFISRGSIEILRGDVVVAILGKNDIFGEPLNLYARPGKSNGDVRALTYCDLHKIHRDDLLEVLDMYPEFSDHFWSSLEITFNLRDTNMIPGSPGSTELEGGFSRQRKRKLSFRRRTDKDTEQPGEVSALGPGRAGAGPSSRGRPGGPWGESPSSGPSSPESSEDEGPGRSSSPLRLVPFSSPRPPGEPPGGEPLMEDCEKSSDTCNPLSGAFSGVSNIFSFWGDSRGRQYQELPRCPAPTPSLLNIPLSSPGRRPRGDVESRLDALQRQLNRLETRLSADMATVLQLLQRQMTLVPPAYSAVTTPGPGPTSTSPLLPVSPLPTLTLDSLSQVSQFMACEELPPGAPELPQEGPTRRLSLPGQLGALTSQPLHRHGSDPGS

Compared with `COc1ccccc1C(=O)NCCC(=O)N(C)CC(=O)Nc1ccc(C)cc1`, `COc1ccc(C(=O)NCC(=O)N/N=C/c2c(C)[nH]c3ccccc23)cc1` is lower in “hERG current change (%, negative = inhibition) at 1uM” value: 15.5% for the first, 5.8% for the second.

Compared with `O=C(COC(=O)c1ccc([N+](=O)[O-])s1)Nc1ncc(C(F)(F)F)cc1Cl`, `Cc1cc(Br)ccc1NC(=O)CNC(=O)Cn1ncc(Cl)c(Cl)c1=O` is higher in “hERG current change (%, negative = inhibition) at 1uM” value: -5.92% for the first, 1.06% for the second.

Compared with `O=C(Cn1nnc(-c2ccccc2)n1)NC1CCS(=O)(=O)C1` (stereo not shown), `CN(C(=O)CSc1nc(-c2ccc(F)cc2)cs1)C1CCS(=O)(=O)C1` (stereo not shown) is lower in “hERG current change (%, negative = inhibition) at 1uM” value: 10.9% for the first, -15.9% for the second.

Compared with `CCOc1ccc(CNc2nc3ccccc3n2CCN2CCOCC2)cc1.Cl`, `Cc1ccc(Cl)c(OCCN2CCc3ccccc3C2)c1.Cl` is higher in “hERG current change (%, negative = inhibition) at 1uM” value: -28% for the first, 17.1% for the second.

First: COc1ccc(NS(=O)(=O)c2ccc(C)c(C(=O)N(C)CCc3ccc(OC)c(OC)c3)c2)cc1
Second: COc1ccc(N(CC(=O)Nc2ccccc2C(N)=O)S(=O)(=O)c2ccc(C)c([N+](=O)[O-])c2)cc1
The “hERG current change (%, negative = inhibition) at 1uM” value of the first is higher: 3.86% for the first, -2.85% for the second.

Going from `N#C/C(=C/c1ccc(F)cc1)c1nnc(NC(=O)c2ccccc2)s1` to `O=c1ccc(-c2ccccc2)nn1Cc1ccc(F)cc1`, the “hERG current change (%, negative = inhibition) at 1uM” value falls from 13.8% to 2.57%.

Compared with `C=CCn1c(Cc2cccs2)nnc1SCC(=O)NC1CC1`, `O=C(Cn1cc2c(n1)CCCCC2)NCc1cccs1` is lower in “hERG current change (%, negative = inhibition) at 1uM” value: 9.64% for the first, 5.78% for the second.

First: COc1ccc(OC)c(C(C)NC(=O)C(C)n2cc([N+](=O)[O-])cn2)c1 (stereo not shown)
Second: CCCn1nnnc1NCc1ccc(OC)cc1OC
The “hERG current change (%, negative = inhibition) at 1uM” value of the first is lower: 11.4% for the first, 19.3% for the second.

First: COCC(C)n1c(C)cc(C(=O)COC(=O)C2=NN(c3ccccc3)C(=O)CC2)c1C (stereo not shown)
Second: C=CCn1c(C)cc(C(=O)COC(=O)c2cncc(Br)c2)c1C
The “hERG current change (%, negative = inhibition) at 1uM” value of the first is higher: 8.28% for the first, -1.38% for the second.

Compared with `COc1ccc(C)cc1NC(=O)NNC(=O)c1cc2ccccc2cc1O`, `COc1ccc(-c2cc(C(=O)Nc3ccccc3O)c3ccccc3n2)cc1` is lower in “hERG current change (%, negative = inhibition) at 1uM” value: 10.7% for the first, 3.29% for the second.

Compared with `COc1cc(/C=N/NC(=O)CC#N)cc(Br)c1O`, `COc1ccc(OC)c2[nH]c(C(=O)N/N=C/c3ccccc3O)cc12` is lower in “hERG current change (%, negative = inhibition) at 1uM” value: 11.7% for the first, 7.41% for the second.

Compared with `O=C(NCCOc1ccccc1)c1cc(C(=O)NCCOc2ccccc2)cc([N+](=O)[O-])c1`, `CNCCCCOc1ccccc1-c1ccccc1.O=C(O)C(=O)O` is higher in “hERG current change (%, negative = inhibition) at 1uM” value: 0.812% for the first, 10.4% for the second.

First: CC(C)(C)N=C1NC(=NC(C)(C)C)c2ccccc21
Second: Cc1nnc(N/N=C/c2ccc(-c3ccccc3F)o2)n1N.Cl
The “hERG current change (%, negative = inhibition) at 1uM” value of the first is higher: -3.75% for the first, -10.9% for the second.

First: CC(=O)N1CCN(S(=O)(=O)c2cccc(C(=O)NNC(=O)Cn3ccc(C(F)(F)F)n3)c2)CC1
Second: CCc1ccccc1NC(=O)CN(C)C(=O)c1cccc(S(=O)(=O)N2CCCCCC2)c1
The “hERG current change (%, negative = inhibition) at 1uM” value of the first is higher: 8.08% for the first, -5.75% for the second.

Compared with `CCC1(c2ccc(F)cc2)NC(=O)N(CC(=O)NC2CC2)C1=O` (stereo not shown), `CC1CCCCC12NC(=O)N(CC(=O)NCCc1ccccn1)C2=O` (stereo not shown) is lower in “hERG current change (%, negative = inhibition) at 1uM” value: 22.5% for the first, -21.5% for the second.

Going from `COc1ccc2c(c1)[nH]c1c(=O)n(CC3CCCO3)cnc12` (stereo not shown) to `COc1ccc(C2=NN(CC(=O)Nc3cc(C)ccc3C)C(=O)CC2)cc1`, the “hERG current change (%, negative = inhibition) at 1uM” value falls from 14.6% to 1.16%.

Compared with `COc1cccc(CC(=O)NCCCSc2ccccc2)c1`, `CCS(=O)(=O)N1Cc2ccccc2CC1C(=O)NCCc1ccccc1` (stereo not shown) is higher in “hERG current change (%, negative = inhibition) at 1uM” value: 1.79% for the first, 9.83% for the second.

First: Cc1cc(C)cc(N(C(=O)c2csnn2)C(C(=O)NC(C)(C)C)c2ccncc2)c1 (stereo not shown)
Second: C=C(C)c1cccc(C(C)(C)NC(=O)NCc2ccncc2)c1
The “hERG current change (%, negative = inhibition) at 1uM” value of the first is lower: 1.11% for the first, 9.08% for the second.

Compared with `Cc1ccsc1C1C=C(c2cccc(Br)c2)Nc2ncnn21` (stereo not shown), `Cc1cccn2c(=O)nc(SCC(=O)c3ccc(Cl)cc3)nc12` is lower in “hERG current change (%, negative = inhibition) at 1uM” value: 6.19% for the first, 1.2% for the second.

Compared with `CCOC(=O)N1CCN(CC(=O)Nc2cccc(Br)c2)CC1`, `CC(C)CNC(=O)c1cccc(NC(=O)C(C)C)c1` is higher in “hERG current change (%, negative = inhibition) at 1uM” value: -2.11% for the first, 11.8% for the second.

Going from `CC(C)(C)Nc1nc(Cl)nc(NC2CCCCC2)n1` to `S=C(NC1CCCC1)NC1CC1`, the “hERG current change (%, negative = inhibition) at 1uM” value rises from 4.81% to 13.5%.

First: COC(=O)c1ccc(C(=O)OC)c(NC(=O)CSCc2ccc(Br)cc2)c1
Second: C/C(CC(=O)NCc1ccc(Cl)cc1)=N\NC(=O)COc1ccc(C)cc1Br
The “hERG current change (%, negative = inhibition) at 1uM” value of the first is higher: 14.3% for the first, 7.45% for the second.

Compared with `O=C(NN=C1CCCCCC1)c1cccnc1`, `O=C(NCCc1ccccc1)C(=O)NN=C1CCCC1` is lower in “hERG current change (%, negative = inhibition) at 1uM” value: 10.3% for the first, 4.11% for the second.

Going from `Cc1cc(C)c2c(CN3CCN(Cc4ccc5c(c4)OCO5)CC3)cc(=O)oc2c1` to `Cc1c(S(=O)(=O)Nc2ccc3c(c2)OCCO3)c(=O)n(C)c(=O)n1C`, the “hERG current change (%, negative = inhibition) at 1uM” value rises from -50.3% to -1.82%.

First: CNC(=S)N/N=C(\C)c1ccccc1
Second: S=C(Nc1ccc(Oc2ccccc2)cc1)NC1CCCCC1
The “hERG current change (%, negative = inhibition) at 1uM” value of the first is lower: 0.358% for the first, 13.7% for the second.

First: CC(C)NC(=S)N/N=C1\CCCCC1C1CCCCC1 (stereo not shown)
Second: CCCCCC1CCC(c2nnc(SCC(C)=O)o2)CC1 (stereo not shown)
The “hERG current change (%, negative = inhibition) at 1uM” value of the first is higher: 12.7% for the first, 11.5% for the second.

Compared with `CCC1(CC)C(=O)N(C)C(=O)NC1=NC`, `CCOC(=O)c1c(NC(=O)CC)sc(C(C)=O)c1C` is lower in “hERG current change (%, negative = inhibition) at 1uM” value: 13.1% for the first, 10.6% for the second.

First: CC1(C)Oc2ccc3ccc(=O)oc3c2[C@H](O)[C@H]1O
Second: CC(=O)Nc1ccc(-c2csc(NC(=O)c3ccc(C)o3)n2)cc1
The “hERG current change (%, negative = inhibition) at 1uM” value of the first is higher: 13.2% for the first, -4.59% for the second.

Going from `COc1cccc2cc(C(=O)NCCC3=CCCCC3)c(=O)oc12` to `CCOc1ccc(/C=N/NC(=O)c2ccccc2O)cc1CN1CC2CC(C1)c1cccc(=O)n1C2` (stereo not shown), the “hERG current change (%, negative = inhibition) at 1uM” value rises from 1.32% to 5.03%.

Compared with `CC(OC(=O)c1cc2sccc2n1C)C(=O)NC(C)(C)C` (stereo not shown), `CCC(C)C(=O)Nc1cc(C(=O)OC)cc(C(=O)OC)c1` (stereo not shown) is higher in “hERG current change (%, negative = inhibition) at 1uM” value: 5.63% for the first, 7.27% for the second.

Compared with `O=C(Nc1ccc(Br)cc1)C1OCCc2ccccc21` (stereo not shown), `O=C(c1ccccc1)N1N=C(c2ccccc2)CC1c1ccccc1O` (stereo not shown) is lower in “hERG current change (%, negative = inhibition) at 1uM” value: 5.36% for the first, 3.4% for the second.

Compared with `Cc1ccc2oc(C(=O)N(Cc3nccn3C)C(C)C)c(C)c2c1`, `Cc1cc(C)n(CC(O)Cn2c(C)c(C)c3ccccc32)n1.O=C(O)C(=O)O` (stereo not shown) is higher in “hERG current change (%, negative = inhibition) at 1uM” value: -1.77% for the first, 6.75% for the second.

First: Cc1cccc(C)c1NC(=S)N/N=C/c1ccc(OCCC(C)C)cc1
Second: CC(C)c1c(C(=O)N/N=C/c2ccc(OCc3ccccc3)cc2)nnn1-c1nonc1N
The “hERG current change (%, negative = inhibition) at 1uM” value of the first is lower: -5.24% for the first, 13.8% for the second.

Compared with `CC1(C)Cc2c(C#N)c(SCCC#N)nc(N3CCOCC3)c2CS1`, `O=C(c1ccc(S(=O)(=O)N2CCOCC2)cc1)N1CCN(S(=O)(=O)c2ccc(Cl)s2)CC1` is higher in “hERG current change (%, negative = inhibition) at 1uM” value: 3.42% for the first, 11.2% for the second.

Going from `COc1cccc(CSc2nnc(C(F)(F)F)n2Cc2ccc(F)cc2)c1` to `COc1cc(/C=C(\C#N)C(=O)Nc2cccc(C(=O)O)c2)ccc1OCc1ccc(Cl)cc1`, the “hERG current change (%, negative = inhibition) at 1uM” value rises from 3.38% to 15.3%.

Compared with `CS(=O)(=O)N(CC(=O)Nc1c(F)cccc1F)c1ccc(C23CC4CC(CC(C4)C2)C3)cc1`, `CCOC(=O)c1ccc(NC(=O)C(=O)NCC2(c3ccc(OC)cc3)CCOCC2)cc1` is lower in “hERG current change (%, negative = inhibition) at 1uM” value: 11.2% for the first, 5.53% for the second.

First: COc1ccc([N+](=O)[O-])c(OC)c1C(=O)NC(=O)Nc1c(F)c(F)c(F)c(F)c1F
Second: COc1ccc(C)c2sc(N(CCCN(C)C)C(=O)CS(=O)(=O)c3ccc(F)cc3)nc12.Cl
The “hERG current change (%, negative = inhibition) at 1uM” value of the first is lower: 4.71% for the first, 5.75% for the second.

Going from `CCN(CC)C(=O)c1[nH]cnc1C(=O)NC1CCN(C(=O)OC(C)(C)C)CC1` to `CCCCC(=O)OCC(=O)c1[nH]c(C)c(C(=O)OCC)c1C`, the “hERG current change (%, negative = inhibition) at 1uM” value falls from 11.5% to 6.61%.

Going from `Cc1ccc(Nc2nc(N)nc(-c3oc4ccccc4c3C)n2)cc1` to `Cc1ccc(NC(=O)c2ccc(OC(=O)C(C)Oc3ccc(Cl)cc3C)cc2)cc1` (stereo not shown), the “hERG current change (%, negative = inhibition) at 1uM” value rises from 8.82% to 11.6%.

Compared with `CN(C)S(=O)(=O)n1cc(/C=C(\NC(=O)c2ccccc2)C(=O)NCCCn2ccnc2)c2ccccc21`, `CC(C)C(NC(=O)c1ccccc1NC(=O)c1ccco1)C(=O)NNC(=O)c1ccncc1` (stereo not shown) is lower in “hERG current change (%, negative = inhibition) at 1uM” value: 18.1% for the first, 11.6% for the second.

Going from `CC(=O)c1ccc2c(c1)OCCOCCOCCO2` to `COc1ccccc1N1CCN(C2CCCN(C(=O)c3cccc(-c4ccco4)c3)C2)CC1` (stereo not shown), the “hERG current change (%, negative = inhibition) at 1uM” value falls from 12.3% to 5.08%.

Going from `Cc1cc(=O)n2c(C)n[nH]c2n1` to `CCNc1nc(NCC)n2c(SC(C(=O)Nc3cc(C)ccc3C)c3ccccc3)nnc2n1` (stereo not shown), the “hERG current change (%, negative = inhibition) at 1uM” value rises from 9.05% to 14.5%.

First: Cc1ccc(/C=N\NC(=O)C2CN(S(=O)(=O)c3ccccc3)CCN2S(=O)(=O)c2ccccc2)cc1 (stereo not shown)
Second: O=C(CC(NS(=O)(=O)c1ccc(Cl)cc1)c1ccco1)NCc1cccnc1 (stereo not shown)
The “hERG current change (%, negative = inhibition) at 1uM” value of the first is higher: 10.5% for the first, -0.782% for the second.

Compared with `O=S(=O)(NCCN1CCCC1)c1ccc(C(F)(F)F)cc1`, `COc1ccc(NC(=O)C(C/C=C(/C)Cl)C(C)=O)cc1` (stereo not shown) is lower in “hERG current change (%, negative = inhibition) at 1uM” value: 12.3% for the first, 8.19% for the second.
